Test results as given in the supplement of paper PMC4967469.
The IC50 comes from the fitted curve, where viability falls to half of the control; fits outside the tested doses are given as limits. AUC is the area under the same curve over the 256-fold range up to the top dose, as a fraction; the more sensitive the line, the further below 1. For part of these data: A top dose marked as inferred comes from the curve model; the source does not state it. For part of these data: Drugs with an entry number were screened twice under separate entries, and the two screens often disagree.

How the values were obtained:
Experiment in all cases: Viability of human cancer cell lines after 72 h of drug (GDSC screen)
LFM-A13 = compound: C/C(O)=C(\C#N)C(=O)Nc1cc(Br)ccc1Br [LFM-A13]; settings: top dose 16 µM; top dose inferred
Method: (§1)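 Human cancer cell lines in 384-well plates, medium with 10% serum, drug for 72 h over a 256-fold dose range (nine 2-fold or five 4-fold steps up to the top dose). Adherent lines were fixed and stained with the nucleic acid dye Syto60, suspension lines read with resazurin; signal relative to control wells, capped at 0 and 100%. One two-parameter sigmoid per drug and line, fitted in a mixed model over all curves with the slope shared within a line.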

AUY922 = compound: CCNC(=O)c1noc(-c2cc(C(C)C)c(O)cc2O)c1-c1ccc(CN2CCOCC2)cc1 [AUY922]; settings: top dose 0.256 µM; top dose inferred
Method: as §1

Bicalutamide = compound: CC(O)(CS(=O)(=O)c1ccc(F)cc1)C(=O)Nc1ccc(C#N)c(C(F)(F)F)c1 [Bicalutamide]; settings: top dose inferred
Method: as §1

Nilotinib = compound: Cc1cn(-c2cc(NC(=O)c3ccc(C)c(Nc4nccc(-c5cccnc5)n4)c3)cc(C(F)(F)F)c2)cn1 [Nilotinib]; settings: top dose 2 µM
Method: as §1

TW-37 = compound: CC(C)c1ccccc1Cc1cc(C(=O)Nc2ccc(S(=O)(=O)c3ccccc3C(C)(C)C)cc2)c(O)c(O)c1O [TW-37]; settings: top dose 5 µM
Method: as §1

MP470 = compound: S=C(NCc1ccc2c(c1)OCO2)N1CCN(c2ncnc3c2oc2ccccc23)CC1 [MP470]; settings: top dose 20 µM; top dose inferred
Method: as §1

KIN001-270 = compound: Cc1ccc(Nc2cc(-c3cccc(N4C(=O)c5ccccc5C4=O)c3)ncn2)cc1NS(C)(=O)=O [KIN001-270]; settings: top dose 20 µM; top dose inferred
Method: as §1

T0901317 = compound: O=S(=O)(c1ccccc1)N(CC(F)(F)F)c1ccc(C(O)(C(F)(F)F)C(F)(F)F)cc1 [T0901317]; settings: top dose 10.24 µM; top dose inferred
Method: as §1

Gemcitabine = compound: Nc1ccn([C@@H]2O[C@H](CO)[C@@H](O)C2(F)F)c(=O)n1 [Gemcitabine]; settings: top dose 1.024 µM
Method: as §1

[1] = top dose 1.024 µM, screen: GDSC drug entry 150
[2] = top dose 10 µM, screen: GDSC drug entry 1502

| Cell Line | AUC (LFM-A13) | IC50 (LFM-A13) [µM] | AUC (AUY922) | IC50 (AUY922) [µM] | AUC (Bicalutamide; [1]) | IC50 (Bicalutamide; [1]) [µM] | AUC (Bicalutamide; [2]) | IC50 (Bicalutamide; [2]) [µM] | AUC (Nilotinib) | IC50 (Nilotinib) [µM] | AUC (TW-37) | IC50 (TW-37) [µM] | AUC (MP470) | IC50 (MP470) [µM] | AUC (KIN001-270) | IC50 (KIN001-270) [µM] | AUC (T0901317) | IC50 (T0901317) [µM] | AUC (Gemcitabine) | IC50 (Gemcitabine) [µM] |
| --- | --- | --- | --- | --- | --- | --- | --- | --- | --- | --- | --- | --- | --- | --- | --- | --- | --- | --- | --- | --- |
| T84 (large intestine, adherent) | 0.967 | > 16 | 0.517 | 0.0178 | 0.98 | > 1.02 | 0.964 | > 10 | 0.989 | > 2 | 0.9 | > 5 | 0.896 | > 20 | 0.984 | > 20 | 0.984 | > 10.2 | 0.308 | 0.0183 |
| T98G (glioma, adherent) | 0.982 | > 16 | 0.635 | 0.0366 | 0.99 | > 1.02 | 0.972 | > 10 | 0.902 | > 2 | 0.631 | 0.696 | 0.962 | > 20 | 0.976 | > 20 | 0.974 | > 10.2 | 0.746 | 0.304 |
| T-T (oesophagus, adherent) | 0.926 | > 16 | 0.448 | 0.0116 | 0.963 | > 1.02 | 0.976 | > 10 | 0.941 | > 2 | 0.49 | 0.294 | 0.914 | > 20 | 0.963 | > 20 | 0.964 | > 10.2 | 0.245 | 0.0119 |
| TGBC11TKB (stomach, adherent) | 0.99 | > 16 | 0.899 | > 0.256 | 0.99 | > 1.02 | 0.973 | > 10 | 0.992 | > 2 | 0.823 | 2.5 | 0.931 | > 20 | 0.967 | > 20 | 0.988 | > 10.2 | 0.637 | 0.145 |
| TK (B-cell lymphoma, suspension) | 0.977 | > 16 | 0.731 | 0.0675 | 0.985 | > 1.02 | 0.986 | > 10 | 0.983 | > 2 | 0.603 | 0.583 | 0.978 | > 20 | 0.974 | > 20 | 0.987 | > 10.2 | 0.246 | 0.0129 |
| TMK-1 (stomach, adherent) | 0.949 | > 16 | 0.691 | 0.0571 | 0.986 | > 1.02 | – | – | 0.986 | > 2 | 0.504 | 0.32 | 0.965 | > 20 | 0.983 | > 20 | 0.98 | > 10.2 | 0.696 | 0.235 |
| TOV-21G (ovary, adherent) | 0.98 | > 16 | 0.705 | 0.0639 | 0.984 | > 1.02 | 0.979 | > 10 | 0.943 | > 2 | 0.338 | 0.106 | 0.973 | > 20 | 0.981 | > 20 | 0.599 | 1.23 | 0.971 | > 1.02 |
